{"source": "PubChem BioAssay (Tox21)", "note": "Inconclusive results, whose numbers are uncertain, are shown with a selection of clear calls. Potencies beside an inconclusive call are fits to weak or partial responses and may not hold up. Calls of active or inactive are those of the source. The call rests on the fitted dose curve; in most records, active means well fitted inhibition curve with a large enough effect in the signal ratio in the repeat runs (not every such curve was filed as active); inconclusive means weak or mixed curves, or effect the other way; inactive means no such curve, though single readings can be large or run the other way; the % refers to the signal ratio. On the % scale 0 is the no-effect control and ±100 the full control effect; potency means the concentration at half of the fitted maximal effect; tags describe the fitted curve by direction and shape or compound fluorescence and quenching."}
{"molecular_target": "Glucocorticoid receptor (Homo sapiens) (UniProt P04150)", "sequence (P04150 whole entry, looked up)": "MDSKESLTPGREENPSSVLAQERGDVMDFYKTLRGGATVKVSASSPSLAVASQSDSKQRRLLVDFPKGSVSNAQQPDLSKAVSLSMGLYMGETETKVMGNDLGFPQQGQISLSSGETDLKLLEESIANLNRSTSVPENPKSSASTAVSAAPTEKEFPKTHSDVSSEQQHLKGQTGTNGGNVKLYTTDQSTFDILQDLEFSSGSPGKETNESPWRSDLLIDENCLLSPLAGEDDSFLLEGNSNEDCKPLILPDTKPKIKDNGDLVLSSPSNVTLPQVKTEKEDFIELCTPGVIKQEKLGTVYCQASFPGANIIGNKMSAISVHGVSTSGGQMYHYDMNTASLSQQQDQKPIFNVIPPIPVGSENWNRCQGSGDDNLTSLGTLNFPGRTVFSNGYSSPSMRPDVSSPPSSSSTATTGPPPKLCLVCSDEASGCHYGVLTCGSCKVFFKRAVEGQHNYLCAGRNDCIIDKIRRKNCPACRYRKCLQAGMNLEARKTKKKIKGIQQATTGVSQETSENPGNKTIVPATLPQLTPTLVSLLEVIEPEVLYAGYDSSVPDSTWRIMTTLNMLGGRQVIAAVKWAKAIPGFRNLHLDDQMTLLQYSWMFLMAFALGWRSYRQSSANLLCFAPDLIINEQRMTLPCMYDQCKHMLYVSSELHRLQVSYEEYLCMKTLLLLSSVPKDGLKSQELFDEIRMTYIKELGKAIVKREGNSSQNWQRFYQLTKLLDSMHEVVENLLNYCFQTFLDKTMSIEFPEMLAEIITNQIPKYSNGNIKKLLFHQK", "experiment": "qHTS assay to identify small molecule antagonists of the glucocorticoid receptor (GR) signaling pathway (AID 720692)", "details": "GR-bla HeLa, beta-lactamase FRET ratio, dexamethasone-stimulated, 18 h; activity change, negative = inhibition: at 58.5 µM (top of the series) unless noted", "method_in_brief": "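GRE-bla HeLa line, dex-stimulated (5 nM final). Compound exposure 18 h, 37 C. Beta-lactamase FRET read after 2 h RT substrate.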"}
{"smiles": "CC(C)OC(=O)CCCCC(=O)OC(C)C", "activity change, negative = inhibition": "inconclusive: 50.5%"}
{"smiles": "Cc1nc2ccccc2n1Cc1ccc(Cl)cc1", "Potency": "inconclusive: 0.601 µM [activator, partial curve]"}
{"smiles": "CCCCc1ccc(N)cc1", "activity change, negative = inhibition": "inactive: -0.201%"}
{"smiles": "FC(F)(F)C(Cl)Br", "note": "(centres undefined)", "activity change, negative = inhibition": "inactive: 8.02%"}
{"smiles": "C=CC(=O)OCC(C)OCC(C)OCC(C)OC(=O)C=C", "note": "(centres undefined)", "Potency": "active: 43.6 µM"}
{"smiles": "CC(CCO)CC(C)(C)C", "note": "(centres undefined)", "Potency": "inactive"}
{"smiles": "NC(N)=NC(=O)Cc1c(Cl)cccc1Cl", "Potency": "inconclusive: 10.7 µM [activator]"}
{"smiles": "C=CC(=O)NCOCCCC", "Potency": "inactive"}
{"smiles": "O=C(O)C1=NN(c2ccc(S(=O)(=O)O)cc2)C(=O)C1", "Potency": "inactive"}
{"smiles": "CC[C@H](C)[C@@H](C(=O)O)n1sc2ccccc2c1=O", "activity change, negative = inhibition": "inactive: 3.6%"}
{"smiles": "CCCCCCCC(=O)OCC(COC(=O)CCCCCCC)OC(=O)CCCCCCC", "Potency": "inactive"}
{"smiles": "CCCCCCCCCCCC[N+](C)(C)CC(=O)[O-]", "Potency": "inconclusive: 49 µM"}
{"smiles": "CC(=O)OCc1ccc2c(c1)OCO2", "activity change, negative = inhibition": "inconclusive: 2.23%"}
{"smiles": "Nc1ccc2ccccc2c1S(=O)(=O)O", "activity change, negative = inhibition": "inconclusive: 20.3% [at 78.9 µM]"}
{"smiles": "CCCOC(=O)c1ccc(N)cc1", "activity change, negative = inhibition": "inconclusive: 0.0706%"}
{"smiles": "COC(=O)c1ccc(I)cc1S(=O)(=O)NC(=O)Nc1nc(C)nc(OC)n1", "activity change, negative = inhibition": "inactive: -0.605%"}
{"smiles": "CCOc1ccc(NS(=O)(=O)c2ccc(N)cc2)nn1", "activity change, negative = inhibition": "inactive: -8.67%"}
{"smiles": "COc1cc2c(Nc3ccc(Br)cc3F)ncnc2cc1OCC1CCN(C)CC1", "Potency": "inconclusive: 26.8 µM [cytotoxic]"}
{"smiles": "Cc1ccc2c(Cl)cc(Cl)c(O)c2n1", "Potency": "active: 16.9 µM"}
{"smiles": "OCCN1C[C@H](O)[C@@H](O)[C@H](O)[C@H]1CO", "activity change, negative = inhibition": "inactive: 11.5%"}
{"smiles": "Cc1ccc(C)c([N+](=O)[O-])c1", "activity change, negative = inhibition": "inconclusive: -18%"}
{"smiles": "CN(C)CCOC1=Cc2ccccc2Sc2ccc(Cl)cc21", "Potency": "inconclusive: 26.8 µM [inhibitor, single point]"}
{"smiles": "CO[C@@]1(NC(=O)CSCC#N)C(=O)N2C(C(=O)O)=C(CSc3nnnn3C)CS[C@@H]21", "activity change, negative = inhibition": "inconclusive: -1.23%"}
{"smiles": "O=C(O)c1cc(N=Nc2ccc(S(=O)(=O)Nc3ccccn3)cc2)ccc1O", "activity change, negative = inhibition": "inconclusive: 1.13% [at 78.9 µM]"}
{"smiles": "C#CCOC(=O)[C@@H](C)Oc1ccc(Oc2ncc(Cl)cc2F)cc1", "Potency": "inconclusive: 1.09 µM [inhibitor, partial curve, poor fit]"}
{"smiles": "CN1CCC(=C2c3ccccc3Sc3ccccc32)CC1", "Potency": "inconclusive: 26.8 µM [inhibitor, single point]"}
{"smiles": "OCCSc1ccccc1", "activity change, negative = inhibition": "inactive: -8.35%"}
{"smiles": "CCCCC(CC)COC(=O)CS", "note": "(centres undefined)", "activity change, negative = inhibition": "inactive: -11.4%"}
{"smiles": "O=C(O)CNC(=O)CNC(=O)CNC(=O)CSC(=O)c1ccccc1", "activity change, negative = inhibition": "inactive: -4.49%"}
{"smiles": "O=C1O[C@H]([C@@H](O)CO)C(O)=C1O", "activity change, negative = inhibition": "inactive: -2.62%"}
{"smiles": "COc1ccc2cc(CCC(C)=O)ccc2c1", "activity change, negative = inhibition": "inconclusive: 3.74% [at 27 µM]"}
{"smiles": "O=C(O)C(Cc1cc(I)c(O)c(I)c1)c1ccccc1", "note": "(centres undefined)", "activity change, negative = inhibition": "inactive: -6.89%"}
{"smiles": "Clc1ccc(Cn2c(CN3CCCC3)nc3ccccc32)cc1", "activity change, negative = inhibition": "inconclusive: -18.5% [at 27 µM]"}
{"smiles": "O=C(O)Cc1sc(-c2ccccc2)nc1-c1ccc(Cl)cc1", "Potency": "inactive"}
{"smiles": "Oc1ccc(O)c2c(O)cccc12", "activity change, negative = inhibition": "inconclusive: -5.12%"}
{"smiles": "Cc1[nH]c(C)c(Cl)c(=O)c1Cl", "activity change, negative = inhibition": "inactive: -0.0841%"}
{"smiles": "C=Cc1ccc(C)cc1", "Potency": "inactive"}
{"smiles": "O=[N+]([O-])c1ccc(O)cc1C(F)(F)F", "Potency": "inconclusive: 17.4 µM [falling, partial curve, poor fit]"}
{"smiles": "Nc1ncn([C@H]2C[C@H](O)[C@@H](CO)O2)c(=O)n1", "Potency": "inconclusive: 26.8 µM [activator, single point]"}
